# Data as given in the supplement of paper PMC8728848.
# The list shows a part of the results.
# Key:
# Assay in all cases: glycan array binding signal (z-score within array); higher = stronger binding
# Settings in all cases: glycan notation: IUPAC condensed, linker removed
# [1] = target: Fuc(a1-2)Gal6S(b1-3)GlcNAc
# How it was run: (§1)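 From the Consortium for Functional Glycomics database, 3228 arrays were curated, keeping only those whose protein sequence was available. Binding is given as a within-array Z-score averaged across arrays sharing a protein sequence and across linkers. Negative Z-scores can be read as non-binding.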
# [2] = target: Fuc(a1-2)Gal6S(b1-3)GlcNAc6S
# How it was run: as §1
# Fuc(a1-2)Gal6S(b1-4)Glc = target: Fuc(a1-2)Gal6S(b1-4)Glc
# How it was run: as §1
# [3] = target: Fuc(a1-2)Gal6S(b1-4)Glc6S
# How it was run: as §1
# Fuc(a1-2)[Gal(a1-3)]Gal = target: Fuc(a1-2)[Gal(a1-3)]Gal
# How it was run: as §1
# [4] = target: Fuc(a1-2)[Gal(a1-3)]Gal(b1-3)GalNAc
# How it was run: as §1
# [5] = target: Fuc(a1-2)[Gal(a1-3)]Gal(b1-3)GalNAc(b1-3)Gal(a1-4)Gal(b1-4)Glc
# How it was run: as §1
# [6] = target: Fuc(a1-2)[Gal(a1-3)]Gal(b1-3)GlcNAc
# How it was run: as §1
# [7] = target: Fuc(a1-2)[Gal(a1-3)]Gal(b1-3)GlcNAc(b1-2)Man(a1-3)[Fuc(a1-2)[Gal(a1-3)]Gal(b1-3)GlcNAc(b1-2)Man(a1-6)]Man(b1-4)GlcNAc(b1-4)GlcNAc
# How it was run: as §1
# [8] = target: Fuc(a1-2)[Gal(a1-3)]Gal(b1-3)GlcNAc(b1-2)Man(a1-3)[Fuc(a1-2)[Gal(a1-3)]Gal(b1-3)GlcNAc(b1-2)Man(a1-6)]Man(b1-4)GlcNAc(b1-4)[Fuc(a1-6)]GlcNAc
# How it was run: as §1
# [9] = target: Fuc(a1-2)[Gal(a1-3)]Gal(b1-3)GlcNAc(b1-3)GalNAc
# How it was run: as §1
# [10] = target: Fuc(a1-2)[Gal(a1-3)]Gal(b1-3)GlcNAc(b1-6)GalNAc
# How it was run: as §1
# [11] = target: Fuc(a1-2)[Gal(a1-3)]Gal(b1-4)Glc
# How it was run: as §1
# [12] = target: Fuc(a1-2)[Gal(a1-3)]Gal(b1-4)GlcNAc
# How it was run: as §1
# [13] = target: Fuc(a1-2)[Gal(a1-3)]Gal(b1-4)GlcNAc(b1-2)Man
# How it was run: as §1
# [14] = target: Fuc(a1-2)[Gal(a1-3)]Gal(b1-4)GlcNAc(b1-2)Man(a1-3)[Fuc(a1-2)[Gal(a1-3)]Gal(b1-4)GlcNAc(b1-2)Man(a1-6)]Man(b1-4)GlcNAc(b1-4)GlcNAc
# How it was run: as §1
# [15] = target: Fuc(a1-2)[Gal(a1-3)]Gal(b1-4)GlcNAc(b1-2)Man(a1-3)[Fuc(a1-2)[Gal(a1-3)]Gal(b1-4)GlcNAc(b1-2)Man(a1-6)]Man(b1-4)GlcNAc(b1-4)[Fuc(a1-6)]GlcNAc
# How it was run: as §1
# [16] = target: Fuc(a1-2)[Gal(a1-3)]Gal(b1-4)GlcNAc(b1-3)GalNAc
# How it was run: as §1
# [17] = target: Fuc(a1-2)[Gal(a1-3)]Gal(b1-4)GlcNAc(b1-3)[Fuc(a1-2)[Gal(a1-3)]Gal(b1-4)GlcNAc(b1-6)]GalNAc
# How it was run: as §1
# [18] = target: Fuc(a1-2)[Gal(a1-3)]Gal(b1-4)GlcNAc(b1-6)GalNAc
# How it was run: as §1
# [19] = target: Fuc(a1-2)[Gal(a1-3)]Gal(b1-4)[Fuc(a1-3)]Glc
# How it was run: as §1
# [20] = target: Fuc(a1-2)[Gal(a1-3)]Gal(b1-4)[Fuc(a1-3)]GlcNAc
# How it was run: as §1
# [21] = target: Fuc(a1-2)[Gal(a1-3)]Gal(b1-4)[Fuc(a1-3)]GlcNAc(b1-3)GalNAc
# How it was run: as §1
# [22] = target: Fuc(a1-2)[Gal(a1-4)]Gal(b1-4)GlcNAc
# How it was run: as §1
# [23] = target: Fuc(a1-2)[GalNAc(a1-3)]Gal
# How it was run: as §1
# [24] = target: Fuc(a1-2)[GalNAc(a1-3)]Gal(b1-3)GalNAc(a1-3)[Fuc(a1-2)]Gal(b1-4)GlcNAc
# How it was run: as §1
# [25] = target: Fuc(a1-2)[GalNAc(a1-3)]Gal(b1-3)GalNAc(b1-3)Gal(a1-4)Gal(b1-4)Glc
# How it was run: as §1
# [26] = target: Fuc(a1-2)[GalNAc(a1-3)]Gal(b1-3)GlcNAc
# How it was run: as §1
# [27] = target: Fuc(a1-2)[GalNAc(a1-3)]Gal(b1-3)GlcNAc(b1-2)Man(a1-3)[Fuc(a1-2)[GalNAc(a1-3)]Gal(b1-3)GlcNAc(b1-2)Man(a1-6)]Man(b1-4)GlcNAc(b1-4)GlcNAc
# How it was run: as §1
# [28] = target: Fuc(a1-2)[GalNAc(a1-3)]Gal(b1-3)GlcNAc(b1-2)Man(a1-3)[Fuc(a1-2)[GalNAc(a1-3)]Gal(b1-3)GlcNAc(b1-2)Man(a1-6)]Man(b1-4)GlcNAc(b1-4)[Fuc(a1-6)]GlcNAc
# How it was run: as §1
# [29] = target: Fuc(a1-2)[GalNAc(a1-3)]Gal(b1-3)GlcNAc(b1-3)GalNAc
# How it was run: as §1
# [30] = target: Fuc(a1-2)[GalNAc(a1-3)]Gal(b1-3)GlcNAc(b1-6)GalNAc
# How it was run: as §1
# [31] = target: Fuc(a1-2)[GalNAc(a1-3)]Gal(b1-4)Glc
# How it was run: as §1
# [32] = target: Fuc(a1-2)[GalNAc(a1-3)]Gal(b1-4)GlcNAc
# How it was run: as §1
# [33] = target: Fuc(a1-2)[GalNAc(a1-3)]Gal(b1-4)GlcNAc(b1-2)Man
# How it was run: as §1
# [34] = target: Fuc(a1-2)[GalNAc(a1-3)]Gal(b1-4)GlcNAc(b1-2)Man(a1-3)[Fuc(a1-2)[GalNAc(a1-3)]Gal(b1-4)GlcNAc(b1-2)Man(a1-6)]Man(b1-4)GlcNAc(b1-4)GlcNAc
# How it was run: as §1
# [35] = target: Fuc(a1-2)[GalNAc(a1-3)]Gal(b1-4)GlcNAc(b1-2)Man(a1-3)[Fuc(a1-2)[GalNAc(a1-3)]Gal(b1-4)GlcNAc(b1-2)Man(a1-6)]Man(b1-4)GlcNAc(b1-4)[Fuc(a1-6)]GlcNAc
# How it was run: as §1
# [36] = target: Fuc(a1-2)[GalNAc(a1-3)]Gal(b1-4)GlcNAc(b1-3)Gal(b1-4)GlcNAc
# How it was run: as §1
# [37] = target: Fuc(a1-2)[GalNAc(a1-3)]Gal(b1-4)GlcNAc(b1-3)Gal(b1-4)GlcNAc(b1-3)Gal(b1-4)GlcNAc
# How it was run: as §1
# [38] = target: Fuc(a1-2)[GalNAc(a1-3)]Gal(b1-4)GlcNAc(b1-3)GalNAc
# How it was run: as §1
# [39] = target: Fuc(a1-2)[GalNAc(a1-3)]Gal(b1-4)GlcNAc(b1-3)[Fuc(a1-2)[GalNAc(a1-3)]Gal(b1-4)GlcNAc(b1-6)]GalNAc
# How it was run: as §1
# [40] = target: Fuc(a1-2)[GalNAc(a1-3)]Gal(b1-4)GlcNAc(b1-6)GalNAc
# How it was run: as §1
# [41] = target: Fuc(a1-2)[GalNAc(a1-3)]Gal(b1-4)[Fuc(a1-3)]GlcNAc
# How it was run: as §1
# [42] = target: Fuc(a1-2)[GalNAc(a1-3)]Gal(b1-4)[Fuc(a1-3)]GlcNAc(b1-3)GalNAc
# How it was run: as §1
# [43] = target: Fuc(a1-2)[GalNAc(a1-4)]Gal(b1-4)GlcNAc
# How it was run: as §1
binder,measurement,setting,value
SSR2 (Sclerotium rolfsii) (protein) MVYKITVRVYQTNPDAFFHPVEKTVWKYANGGTWSITDDQHVLTMGGSGTSGTLRFHADNGESFTATFGVHNYKRWCDIVTNLAADETGMVINQQYYSQKNREEARERQLSNYQVKNAKGRNFQIVYTEAEGNDLHANLIIG,glycan array binding signal (z-score),[1],-0.3
same,glycan array binding signal (z-score),[2],-0.263
same,glycan array binding signal (z-score),Fuc(a1-2)Gal6S(b1-4)Glc,-0.28
same,glycan array binding signal (z-score),[3],-0.275
same,glycan array binding signal (z-score),Fuc(a1-2)[Gal(a1-3)]Gal,-0.28
same,glycan array binding signal (z-score),[4],-0.29
same,glycan array binding signal (z-score),[5],-0.298
same,glycan array binding signal (z-score),[6],-0.273
same,glycan array binding signal (z-score),[7],-0.269
same,glycan array binding signal (z-score),[8],-0.257
same,glycan array binding signal (z-score),[9],-0.282
same,glycan array binding signal (z-score),[10],-0.301
same,glycan array binding signal (z-score),[11],-0.289
same,glycan array binding signal (z-score),[12],-0.26
same,glycan array binding signal (z-score),[13],-0.299
same,glycan array binding signal (z-score),[14],-0.299
same,glycan array binding signal (z-score),[15],-0.295
same,glycan array binding signal (z-score),[16],-0.285
same,glycan array binding signal (z-score),[17],-0.277
same,glycan array binding signal (z-score),[18],-0.277
same,glycan array binding signal (z-score),[19],-0.277
same,glycan array binding signal (z-score),[20],-0.264
same,glycan array binding signal (z-score),[21],-0.285
same,glycan array binding signal (z-score),[22],-0.281
same,glycan array binding signal (z-score),[23],-0.271
same,glycan array binding signal (z-score),[24],-0.212
same,glycan array binding signal (z-score),[25],-0.282
same,glycan array binding signal (z-score),[26],-0.29
same,glycan array binding signal (z-score),[27],-0.287
same,glycan array binding signal (z-score),[28],-0.264
same,glycan array binding signal (z-score),[29],-0.26
same,glycan array binding signal (z-score),[30],-0.297
same,glycan array binding signal (z-score),[31],-0.286
same,glycan array binding signal (z-score),[32],-0.287
same,glycan array binding signal (z-score),[33],-0.275
same,glycan array binding signal (z-score),[34],-0.281
same,glycan array binding signal (z-score),[35],-0.289
same,glycan array binding signal (z-score),[36],-0.305
same,glycan array binding signal (z-score),[37],-0.271
same,glycan array binding signal (z-score),[38],-0.297
same,glycan array binding signal (z-score),[39],-0.294
same,glycan array binding signal (z-score),[40],-0.297
same,glycan array binding signal (z-score),[41],-0.263
same,glycan array binding signal (z-score),[42],-0.253
same,glycan array binding signal (z-score),[43],-0.283
